In the supplement of paper PMC9446081:
In all, about 39,000 compounds went through this assay and about 220 (0.56%) showed activity. The list shows a part of the results.

These molecules were tested on Escherichia coli K-12 BW25113 (assay: relative growth (OD600 normalised to plate interquartile mean) (fraction); higher = less growth inhibition, active = 0.2 or less). Conditions: 50 µM; LB; incubation time: overnight (16-24 h).
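Note: static incubation at 37 °C against the wild-type strain, values averaged over two biological replicates.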

| SMILES | relative growth |
| --- | --- |
| COCC(=O)Nc1ccc2c(c1)C(=O)N(C)C[C@H](OC)[C@H](C)CN(Cc1cccc(F)c1)[C@H](C)CO2 | inactive: 1.01 |
| O=C(CCCCCCC(=O)Nc1ccc([C@H]2C[C@H](c3ccccc3)O[C@H](c3cccc(Oc4ccccc4)c3)O2)cc1)NO | inactive: 1.01 |
| COc1ccc(S(=O)(=O)N(C)C[C@H]2Oc3ccc(NS(=O)(=O)c4c(C)noc4C)cc3CC(=O)N([C@@H](C)CO)C[C@H]2C)cc1 | inactive: 1.02 |
| COCC(=O)N(C)C[C@@H]1Oc2cc(C#C[C@@H](C)O)ccc2S(=O)(=O)N([C@@H](C)CO)C[C@@H]1C | inactive: 0.95 |
| C[C@H]1CCCCO[C@H](CN(C)C(=O)C2CCCCC2)[C@@H](C)CN([C@@H](C)CO)C(=O)c2cc(NC(=O)Nc3ccccc3)ccc2O1 | inactive: 1.01 |
| C[C@H](CO)N1C[C@H](C)[C@@H](CN(C)Cc2ccc3c(c2)OCO3)Oc2ccc(NS(=O)(=O)c3cn(C)cn3)cc2C1=O | inactive: 0.998 |
| COc1ccc2c3c(n(c2c1)C)[C@@H](CO)N(CC1CCOCC1)C[C@]13CN(C1)C(=O)c1cccc(c1)F | inactive: 1.02 |
| C[C@@H]1CN([C@@H](C)CO)C(=O)c2cccc(NC(=O)C3CCOCC3)c2O[C@H]1CN(C)C(=O)Nc1ccc2c(c1)OCO2 | inactive: 1 |
| COc1ccc(S(=O)(=O)Nc2ccc3c(c2)C(=O)N([C@H](C)CO)C[C@@H](C)[C@H](CN(C)S(C)(=O)=O)OCCCC[C@@H](C)O3)cc1 | inactive: 1 |
| C[C@H](CO)N1C[C@H](C)[C@@H](CN(C)C(=O)Nc2ccc3c(c2)OCO3)OCCCC[C@H](C)Oc2ccc(NC(=O)c3ccncc3)cc2C1=O | inactive: 0.997 |
| C[C@H]1CN([C@@H](C)CO)C(=O)CCCn2cc(nn2)CO[C@@H]1CN(C)C(=O)c1cc(-c2ccccc2)on1 | inactive: 0.984 |
| C[C@@H]1CN([C@@H](C)CO)C(=O)c2cccc(NC(=O)c3cnccn3)c2O[C@@H]1CN(C)C(=O)Nc1ccccc1 | inactive: 0.951 |
| COc1cc(N)ccn1 | inactive: 1.07 |
| C[C@H](CO)N1C[C@H](C)[C@@H](CN(C)Cc2ccc(C(F)(F)F)cc2)Oc2ccc(NC(=O)NC3CCCCC3)cc2CC1=O | inactive: 0.958 |
| C[C@@H]1CN([C@@H](C)CO)C(=O)c2cc(NC(=O)CCCCCC(=O)Nc3ccccc3N)ccc2O[C@@H]1CN(C)Cc1ccc(-c2ccccc2)cc1 | inactive: 0.961 |
| COc1ccc(S(=O)(=O)N(C)C[C@H]2Oc3ccc(NS(=O)(=O)c4ccc(F)cc4)cc3C(=O)N([C@@H](C)CO)C[C@@H]2C)cc1 | inactive: 0.998 |
| CCc1cnc2c(c1OC)c(=O)n(CC(=O)NCCOC)c(=O)n2C | inactive: 0.98 |
| C[C@H](CO)N1C[C@H](C)[C@H](CN(C)Cc2ccc(-c3ccccc3)cc2)Oc2ccc(NC(=O)Nc3ccc(F)cc3)cc2CC1=O | inactive: 1.04 |
| C[C@@H]1CN([C@@H](C)CO)C(=O)c2cc(NC(=O)NC3CCCCC3)ccc2O[C@@H]1CN(C)C(=O)Nc1cccc2ccccc12 | inactive: 1.01 |

| SMILES | relative growth |
| --- | --- |
| CCNC(=O)C[C@H]1CC[C@H]2[C@@H](COC[C@@H](O)CN2S(=O)(=O)c2ccc(Oc3ccccc3)cc2)O1 | inactive: 1.01 |
| C[C@@H]1CN([C@H](C)CO)C(=O)c2cccc(NC(=O)NC3CCCCC3)c2O[C@H]1CN(C)Cc1ccc(-c2ccccc2)cc1 | inactive: 0.936 |
| COc1ccc(CN(C)C[C@H]2OCCCC[C@@H](C)Oc3ccc(NC(=O)Nc4c(C)noc4C)cc3C(=O)N([C@H](C)CO)C[C@H]2C)cc1 | inactive: 0.987 |
| C[C@@H]1CN([C@@H](C)CO)C(=O)c2cc(NC(=O)Nc3ccc(C(F)(F)F)cc3)ccc2O[C@@H](C)CCCCO[C@H]1CN(C)S(=O)(=O)c1cn(C)cn1 | inactive: 1.03 |
| C[C@H]1CN([C@@H](C)CO)C(=O)c2cccc(NS(=O)(=O)c3cccs3)c2O[C@H]1CN(C)S(=O)(=O)c1ccccc1 | inactive: 1.02 |
| C[C@@H]1CCCCO[C@@H](CN(C)S(=O)(=O)c2ccccc2)[C@@H](C)CN([C@@H](C)CO)C(=O)c2cc(NS(=O)(=O)c3ccc(Cl)cc3)ccc2O1 | inactive: 1.01 |
| C[C@H](CO)N1C[C@H](C)[C@@H](CN(C)S(=O)(=O)c2cccs2)Oc2ccc(NC(=O)Nc3cccc4ccccc34)cc2C1=O | inactive: 1.02 |
| C=CC[C@H](CC(=O)N(CCO)Cc1ccccc1)C(=O)NC[C@H](OC(=O)[C@@H](CC=C)Cc1ccc(F)cc1)c1ccccc1 | inactive: 1.07 |
| COc1ccc(NC(=O)N(C)C[C@H]2OCCCC[C@H](C)Oc3ccc(NC(=O)NC(C)C)cc3C(=O)N([C@@H](C)CO)C[C@@H]2C)cc1 | inactive: 0.988 |
| C[C@@H]1CCCCO[C@H](CN(C)CC2CCCCC2)[C@@H](C)CN([C@H](C)CO)C(=O)c2cc(NC(=O)Nc3ccc(C(F)(F)F)cc3)ccc2O1 | inactive: 1.01 |
| O=C(CN1CCOCC1)NCC[C@H]1CC[C@@H](NC(=O)Nc2ccccc2)[C@H](CO)O1 | inactive: 0.976 |
| Cc1cc(C(=O)Nc2cccc3c2O[C@@H](CN(C)C(=O)NC(C)C)[C@H](C)CN([C@H](C)CO)C3=O)n(C)n1 | inactive: 0.958 |
| C[C@@H]1CCCCO[C@H](CN(C)C(=O)Nc2ccc(C(F)(F)F)cc2)[C@@H](C)CN([C@H](C)CO)C(=O)c2cc(NC(=O)c3ccncc3)ccc2O1 | inactive: 0.995 |
| Cc1noc(C)c1S(=O)(=O)N(C)C[C@@H]1OCCCC[C@@H](C)Oc2ccc(NC(=O)Nc3cccc4ccccc34)cc2C(=O)N([C@H](C)CO)C[C@@H]1C | inactive: 0.998 |
| C[C@@H]1CN([C@H](C)CO)C(=O)c2cc(NS(=O)(=O)c3cccs3)ccc2O[C@@H]1CN(C)S(C)(=O)=O | inactive: 0.981 |
| CCC(=O)N(C)C[C@@H]1Oc2ncc(C#C[C@H](C)O)cc2C(=O)N([C@@H](C)CO)C[C@H]1C | inactive: 1.02 |
| C[C@H](CO)N1C[C@H](C)[C@@H](CN(C)Cc2ccc(Cl)c(Cl)c2)Oc2ccc(NC(=O)Nc3ccc4c(c3)OCO4)cc2C1=O | inactive: 0.979 |
| NNC(=O)CNC(=O)c1ccccc1 | inactive: 0.997 |
| CC(C=CC=C(C)C=CC1=C(C)C(=O)CCC1(C)C)=CC=CC=C(C)C=CC=C(C)C=CC1=C(C)C(=O)CCC1(C)C [CANTHAXANTHIN (euglenanone)] | inactive: 1.05 |

| SMILES | relative growth |
| --- | --- |
| CN(C)CCCNC(=O)C[C@@H]1CC[C@@H]2[C@H](COC[C@H](O)CN2S(=O)(=O)c2ccc(F)cc2)O1 | inactive: 0.987 |
| C[C@@H]1CCCCO[C@@H](CN(C)C(=O)Nc2ccc3c(c2)OCO3)[C@@H](C)CN([C@@H](C)CO)C(=O)c2cc(NC(=O)Cc3ccccc3)ccc2O1 | inactive: 0.996 |
| C[C@@H]1CN([C@@H](C)CO)C(=O)c2cccc(NC(=O)C3CCCCC3)c2O[C@H]1CN(C)Cc1ccc(Oc2ccccc2)cc1 | inactive: 0.983 |
| COc1ccc(CN(C)C[C@H]2Oc3ccc(NC(=O)Nc4cccc5ccccc45)cc3CC(=O)N([C@@H](C)CO)C[C@@H]2C)cc1 | inactive: 1 |
| CC(C)Cn1c(N)cc(=O)n(C)c1=O | inactive: 1.02 |
| CCOC(=O)[C@@H](N)[C@@H](O)c1ccccc1 | inactive: 0.937 |
| COc1ccc(S(=O)(=O)N(C)C[C@@H]2Oc3ccc(NC(=O)Nc4c(C)noc4C)cc3CC(=O)N([C@H](C)CO)C[C@@H]2C)cc1 | inactive: 0.989 |
| C[C@@H]1CN([C@@H](C)CO)C(=O)c2cc(NC(=O)C3CCCCC3)ccc2O[C@@H]1CN(C)S(=O)(=O)c1cn(C)cn1 | inactive: 1.04 |
| O=C(C[C@@H]1C[C@@H]2c3cc(NC(=O)c4cccnc4)ccc3O[C@@H]2[C@@H](CO)O1)NCc1cc(F)ccc1F | inactive: 0.997 |
| COc1ccc(NC(=O)N(C)C[C@H]2OCCCC[C@H](C)Oc3ccc(NS(=O)(=O)c4ccccc4)cc3C(=O)N([C@H](C)CO)C[C@@H]2C)cc1 | inactive: 0.991 |
| O=C(Cn1cc(CN2C(=O)COC[C@H]2c2ccccc2)nn1)N1CCC2(CC1)C(=O)NCN2c1ccccc1 | inactive: 0.991 |
| C[C@@H]1CN([C@H](C)CO)C(=O)Cc2cc(NC(=O)C3CCCCC3)ccc2O[C@@H]1CN(C)Cc1ccc(Oc2ccccc2)cc1 | inactive: 1 |
| CCCC#Cc1cnc2c(c1)C(=O)N([C@H](C)CO)C[C@@H](C)[C@@H](CN(C)S(=O)(=O)c1cn(C)cn1)O2 | inactive: 1.03 |
| C=C/C=C/[C@@H]1C(=C)CN([C@@H](Cc2ccccc2)C(=O)OC)[C@H]1[C@@H](O)CCn1cc(-c2ccc(C(=O)NO)cc2)nn1 | inactive: 0.968 |
| CO[C@@H]1CN(C)C(=O)c2cc(NS(=O)(=O)c3cn(C)cn3)ccc2OC[C@H](C)N(Cc2cccc(F)c2)C[C@@H]1C | inactive: 1.04 |
| Cc1noc(C)c1NC(=O)Nc1ccc2c(c1)C(=O)N([C@@H](C)CO)C[C@@H](C)[C@H](CN(C)Cc1ccncc1)OCCCC[C@@H](C)O2 | inactive: 0.992 |
| COc1ccc(S(=O)(=O)N(C)C[C@H]2Oc3ccc(NC(=O)CCCN(C)C)cc3C(=O)N([C@H](C)CO)C[C@@H]2C)cc1 | inactive: 0.999 |
| C[C@@H]1CN([C@@H](C)CO)C(=O)c2cc(C#Cc3cccc(F)c3)cnc2O[C@H]1CN(C)Cc1ccccn1 | inactive: 1 |
| C[C@H]1CN([C@@H](C)CO)C(=O)c2cc(NC(=O)CCCN(C)C)ccc2O[C@@H]1CN(C)S(=O)(=O)c1ccc(Cl)cc1 | inactive: 1 |
